Assay results taken from article PMC4336329 (PLoS ONE, 2015).
Out of some 310,000 compounds screened, about 14,000 (4.5%) showed an effect of 50% or more. The effect is printed as a negative number. Some of the results follow.
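Further: peak tail current of the secondary pulse compared with the same well before compound.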

What follows are compounds tested against human ether-à-go-go-related gene (hERG) potassium channel (human, UniProt Q12809) (assay: primary screen, population patch clamp on CHO cells stably expressing hERG).
Sequence of human ether-à-go-go-related gene (hERG) potassium channel (Q12809 whole entry, looked up): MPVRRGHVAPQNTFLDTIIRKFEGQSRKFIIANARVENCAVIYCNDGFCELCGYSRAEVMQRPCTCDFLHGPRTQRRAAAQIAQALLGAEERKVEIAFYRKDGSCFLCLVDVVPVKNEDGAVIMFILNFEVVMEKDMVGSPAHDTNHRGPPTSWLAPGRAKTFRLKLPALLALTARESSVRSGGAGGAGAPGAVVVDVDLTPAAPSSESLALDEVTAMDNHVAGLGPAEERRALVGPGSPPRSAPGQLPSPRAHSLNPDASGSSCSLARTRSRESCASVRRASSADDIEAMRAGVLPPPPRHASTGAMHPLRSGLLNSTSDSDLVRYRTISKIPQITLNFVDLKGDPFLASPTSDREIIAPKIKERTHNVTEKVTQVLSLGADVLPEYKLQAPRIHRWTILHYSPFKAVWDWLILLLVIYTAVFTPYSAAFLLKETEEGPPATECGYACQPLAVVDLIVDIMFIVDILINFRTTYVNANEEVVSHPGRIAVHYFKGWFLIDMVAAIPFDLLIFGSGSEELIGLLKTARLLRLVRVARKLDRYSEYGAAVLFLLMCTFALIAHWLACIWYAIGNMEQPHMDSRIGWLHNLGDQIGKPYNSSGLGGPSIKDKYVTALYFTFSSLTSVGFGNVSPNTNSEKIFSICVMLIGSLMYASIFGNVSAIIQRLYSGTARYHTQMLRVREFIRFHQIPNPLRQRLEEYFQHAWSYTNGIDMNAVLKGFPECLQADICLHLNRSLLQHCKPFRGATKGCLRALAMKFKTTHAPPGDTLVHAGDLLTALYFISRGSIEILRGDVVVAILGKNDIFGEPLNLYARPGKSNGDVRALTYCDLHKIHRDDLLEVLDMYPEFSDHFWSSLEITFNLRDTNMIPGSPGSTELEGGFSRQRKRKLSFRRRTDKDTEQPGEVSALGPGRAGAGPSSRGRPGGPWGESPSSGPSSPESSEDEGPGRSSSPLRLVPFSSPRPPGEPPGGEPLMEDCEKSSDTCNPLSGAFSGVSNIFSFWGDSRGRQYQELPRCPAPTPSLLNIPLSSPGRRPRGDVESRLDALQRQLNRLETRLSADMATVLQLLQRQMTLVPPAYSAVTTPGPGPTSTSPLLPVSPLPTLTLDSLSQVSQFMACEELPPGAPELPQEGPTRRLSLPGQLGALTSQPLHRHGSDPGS
In the case of `COc1cc(/C=c2\s/c(=C(/C#N)C(=O)N3CCCC3)n(-c3ccccc3)c2=O)ccc1O`, the “hERG current change (%, negative = inhibition) at 10uM” value is reported as -4.52%.
`C/C(=N\O)c1ccn(S(=O)(=O)c2ccc(Cl)cc2)c1` was tested, and the “hERG current change (%, negative = inhibition) at 10uM” value was 2.22%.
With `CNC(=O)NC(=O)CSc1ccc(NC(C)=O)cc1` the “hERG current change (%, negative = inhibition) at 10uM” value was 14.5%.
With `CC(=O)c1ccc(S(=O)(=O)NCC(=O)N2CCN(C/C=C/c3ccccc3)CC2)cc1` the “hERG current change (%, negative = inhibition) at 10uM” value was -38.7%.
For `O=C(NCCCN1CCCC1=O)c1ccc(OC(F)(F)F)cc1`, the “hERG current change (%, negative = inhibition) at 10uM” value was -0.372%.
`Cc1ccc(Cl)cc1NC(=O)c1cc(S(=O)(=O)N2CCOCC2)cn1C` was tested, and the “hERG current change (%, negative = inhibition) at 10uM” value was 5.1%.
`O=C1N(CN2CCOCC2)c2ccccc2C12OCC(CCl)O2` (stereo not shown) was tested, and the “hERG current change (%, negative = inhibition) at 10uM” value was -14.1%.
`Cc1nc2c(sc3nc4c(cc32)COC(C)(C)C4)c(=O)n1CC(=O)NCc1ccco1` was tested, and the “hERG current change (%, negative = inhibition) at 10uM” value was -4.06%.
`CC(C)(C)n1nc(Cc2cccc3ccccc23)c(C#N)c1N` was tested, and the “hERG current change (%, negative = inhibition) at 10uM” value was 3.77%.
With `COc1ccc(S(=O)(=O)N(CC(=O)NCC2CCCO2)c2ccc(F)cc2)cc1OC` (stereo not shown) the “hERG current change (%, negative = inhibition) at 10uM” value was 3.83%.
With `COc1ccc2cc(/C=N/NC(=O)c3ccc(CN(c4cccc(Cl)c4Cl)S(C)(=O)=O)cc3)c(Cl)nc2c1` the “hERG current change (%, negative = inhibition) at 10uM” value was 16.5%.
With `CCOc1ccccc1N1CCN(C(=O)c2ccc3[nH]c4c(c3c2)CCCC4)CC1` the “hERG current change (%, negative = inhibition) at 10uM” value was 23%.
`COc1ccccc1-n1c(C)cc(SC)c(C(C)=O)c1=S` was tested, and the “hERG current change (%, negative = inhibition) at 10uM” value was -4.83%.
In the case of `COc1cc(OC)c(C(=O)OCC(=O)NC2CCCC2)cc1OC`, the “hERG current change (%, negative = inhibition) at 10uM” value is reported as 19.7%.
In the case of `O=c1[nH]cc(S(=O)(=O)Nc2ccc3c(c2)OCO3)c(=O)[nH]1`, the “hERG current change (%, negative = inhibition) at 10uM” value is reported as -17.8%.
`O=C(Nc1nccs1)c1ccc(COc2ccc(Cl)cc2)o1` was tested, and the “hERG current change (%, negative = inhibition) at 10uM” value was 5.18%.
With `CCOC(=O)c1ccc(COC(=O)c2ccc(-c3nnc(-c4ccccc4)o3)cc2)o1` the “hERG current change (%, negative = inhibition) at 10uM” value was 1.77%.
`CN(C)C1(CNC(=O)C2CCC(=O)N(Cc3ccc(Cl)cc3)C2)CCCCC1` (stereo not shown) was tested, and the “hERG current change (%, negative = inhibition) at 10uM” value was 0.208%.
With `Cc1ccc(C2=[N+]([O-])C3(CCCCC/C3=N\O)N(O)C2(C)C)o1` (stereo not shown) the “hERG current change (%, negative = inhibition) at 10uM” value was -3.99%.
With `CCCC[C@H]1COCCS(=O)(=O)N1Cc1cccc([N+](=O)[O-])c1` the “hERG current change (%, negative = inhibition) at 10uM” value was -25.6%.
For `O=C(c1ccc(OC2CCN(C/C=C/c3ccc(F)cc3)CC2)cc1)N1CCCCC1`, the “hERG current change (%, negative = inhibition) at 10uM” value was -64.9%.
In the case of `CCS(=O)(=O)N1Cc2ccccc2CC1C(=O)Nc1nc2c(C)cccc2s1` (stereo not shown), the “hERG current change (%, negative = inhibition) at 10uM” value is reported as 6.09%.
With `CCN1CCN(Cc2ccc(NC(=O)c3ccc(C)c(NC(=O)c4csc(-c5ccncc5)n4)c3)cc2C(F)(F)F)CC1` the “hERG current change (%, negative = inhibition) at 10uM” value was 7.22%.
In the case of `CC(C)CNC(=S)N(CCO)Cc1cc2cc3c(cc2[nH]c1=O)OCO3`, the “hERG current change (%, negative = inhibition) at 10uM” value is reported as -4.1%.
In the case of `CC1(C)CC(NC(=O)COc2ccc(Cl)cc2Cl)CC(C)(C)N1`, the “hERG current change (%, negative = inhibition) at 10uM” value is reported as -13.9%.
In the case of `Cc1[nH]c(=O)c(C#N)c(C)c1CCC(=O)Nc1cc(S(C)(=O)=O)ccc1Cl`, the “hERG current change (%, negative = inhibition) at 10uM” value is reported as 16.1%.
In the case of `O=C(Cn1c2c(sc1=O)C1c3ccccc3OCC1CS2)Nc1ccc(Cl)cc1` (stereo not shown), the “hERG current change (%, negative = inhibition) at 10uM” value is reported as 16.3%.
In the case of `O=C(Nc1cccc(Cl)c1)ON=C1c2ccccc2-c2ccccc21`, the “hERG current change (%, negative = inhibition) at 10uM” value is reported as -23.6%.
With `COc1ccccc1-c1noc2ncnc(Nc3ccccc3C)c12` the “hERG current change (%, negative = inhibition) at 10uM” value was -43.2%.
With `O=C(Nc1nc(-c2ccc(F)c(F)c2)cs1)c1cc([N+](=O)[O-])ccc1N1CCOCC1` the “hERG current change (%, negative = inhibition) at 10uM” value was 7.34%.
`CCn1c(Cc2cccs2)nnc1SCC(=O)NC1CC1` was tested, and the “hERG current change (%, negative = inhibition) at 10uM” value was -1.49%.
For `CC1CCN(c2ccc(C(=O)Nc3ccc4c(c3)OCO4)cc2[N+](=O)[O-])CC1`, the “hERG current change (%, negative = inhibition) at 10uM” value was 7.17%.
With `COc1ccccc1-n1cc([C@@H]2C[C@H]3CN(c4ccccc4)C(=O)[C@]34CCCN24)cn1` the “hERG current change (%, negative = inhibition) at 10uM” value was -17.1%.
`CC(=O)NCCc1nc2cc(NC(=O)c3cccc([N+](=O)[O-])c3)ccc2n1C` was tested, and the “hERG current change (%, negative = inhibition) at 10uM” value was 19.2%.
For `O=C(CCCCCN1C(=O)c2ccccc2C1=O)NCc1ccco1`, the “hERG current change (%, negative = inhibition) at 10uM” value was -8.6%.
For `Cc1nnc(NC(=O)CCNC(=O)c2ccccc2Cl)s1`, the “hERG current change (%, negative = inhibition) at 10uM” value was 28%.
`CC(=O)Nc1ccc(S(=O)(=O)N2CCN(CCCOc3cc(C)ccc3C)CC2)cc1` was tested, and the “hERG current change (%, negative = inhibition) at 10uM” value was -40.2%.
For `COc1cccc(CNC(=O)CCN2C(=O)[C@@H]3Cc4ccccc4CN3C2=O)c1`, the “hERG current change (%, negative = inhibition) at 10uM” value was 7.5%.
`O=c1cc(NS(=O)(=O)c2ccccc2)nc(SCc2c(Cl)cccc2Cl)[nH]1` was tested, and the “hERG current change (%, negative = inhibition) at 10uM” value was 22.4%.
`Cc1ccc(/C=C/c2nnc(-c3ccccc3)o2)cc1` was tested, and the “hERG current change (%, negative = inhibition) at 10uM” value was 2.67%.
In the case of `O=C(COc1ccc(Cl)cc1Cl)N1CCNC1=O`, the “hERG current change (%, negative = inhibition) at 10uM” value is reported as -16.7%.
With `O=C(NCCSc1ccccc1)c1ccccc1F` the “hERG current change (%, negative = inhibition) at 10uM” value was 5.32%.
With `CCN(CC)S(=O)(=O)c1cccc(-c2nnc(SCc3ncc(-c4ccccc4)o3)n2C)c1` the “hERG current change (%, negative = inhibition) at 10uM” value was -68.2%.
